Source: the supplement of paper PMC11417369
± gives the standard deviation of the averaged measurements. Some of the results follow.

The sequences below were run on PfAP2-LT AP2 domain (GST-tagged) (assay: gcPBM binding intensity (ln(normalized median fluorescence intensity)); higher = stronger DNA binding).
Outline: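 The highest Masliner-normalised natural-log median intensity across replicate spots of either probe orientation is reported as binding intensity. GST-tagged P. falciparum DNA-binding domains expressed in E. coli were applied for 1 h to an Agilent 4 × 180k array of primer-extended double-stranded 36-bp intergenic genomic probes plus negative controls, and bound protein was detected with Alexa488 anti-GST antibody and scanned at 488 nm.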

Sequence | gcPBM binding intensity (ln)
ATATTATATAAATATACACACATTGTTTTATAGCAT [CACACA_site2386] | 9.04 ± 0.35
AAAAAAAAATACATATGTACATATACATATATATAT [XGTACX_site2975] | 8.9 ± 0.41
ATATATTTAATTTATGGTACACATAATTTTTTTAGA [XGTACX_site848] | 8.55 ± 0.44
GAACATACTCAAATAGCACACACATAAATAAAAATG [CACACA_site9283] | 9.52 ± 0.34
AAAATCCACATTTTAGTACACACTTAAAAAATTATT [CACACA_site2955] | 8.71 ± 0.46
TTATATATATATATATGTACGAAAAAGAAAAAAAAG [XGTACX_site6761] | 8.69 ± 0.45
TATATATATATAATATGTACATATAATCAACATTTT [XGTACX_site3915] | 8.8 ± 0.45
TTAGTCATATATATATGTACACACATATATATATTT [XGTACX_site2948] | 9.01 ± 0.33
ATTTTTATATAATGAACACACATATTATATCATTTA [CACACA_site1572] | 8.79 ± 0.42
AAAAGAAAATAAGAAACACACAAAAATATGTAAAAA [CACACA_site7694] | 9.17 ± 0.65
CCATAGATATTTTATACACACATATAACATATTAAT [CACACA_site6312] | 8.96 ± 0.35
ATATTGACAAATATTACACACATATATAAATATGTA [CACACA_site7835] | 8.89 ± 0.41
ATTTATTTTAATATATGTACATATATTTTTTTATTA [XGTACX_site3389] | 8.8 ± 0.47
ATATAATATTACACAAGTACAAAAATTAATACTAAA [XGTACX_site482] | 8.81 ± 0.47
AAACTGTCGCTCATAAAGAAGAATGAAATACATTAA [TGCATGCA_negctrl_site60] | 8.6 ± 0.54
ACCCATGATTGTTACAGTACTCTACTTTCTAATATA [XGTACX_site98] | 8.96 ± 0.46
ATATATGCATATTATACACACATATGTATATACATT [CACACA_site965] | 9.24 ± 0.33
AAAAAAAAAAAAAATGCACACAATGGCTAGCTGTAC [CACACA_site2273] | 9.16 ± 0.27
TTTTCTGTATATTGTGTGCACACAATTAACAAAAAA [GTGCAC_site9817] | 9.09 ± 0.4

Sequence | gcPBM binding intensity (ln)
TGGAGGTCAGTTCACAGTACCCAGGAAATCTACGGA [XGTACX_site1995] | 8.64 ± 0.53
ATAAAATATAAAAAAAGTACAAAAAAAAAAAAAAAA [XGTACX_site6657] | 8.68 ± 0.42
ATTTGAAATGCATGAACACACACAGCTATAAATGCA [CACACA_site8229] | 9.14 ± 0.29
TAGTAATATATATTTTGTACATAAAATAATATATAA [XGTACX_site7971] | 8.57 ± 0.47
CGTTATTATCCACATACACACAGGAATAAAAAATTA [CACACA_site2883] | 9.04 ± 0.47
TATATATGTTAAAACGTGCACATATATATATATATA [GTGCAC_site9589] | 9.725 ± 0.092
TTCTTTTTTTTTCTGGGTACATATATTCCAATCACT [XGTACX_site4770] | 8.93 ± 0.4
TTATAAAAGACAAAAGTGCATATATACATATGTATA | 8.76 ± 0.52
AATATAATTATATGTGGTACAGAAATAATATAAAAT [XGTACX_site2366] | 9.14 ± 0.49
AAATAAATAAATTAACGTACATAATAACATTAATAT [XGTACX_site8567] | 8.86 ± 0.47
ATATATATATATGTATGTACACATATTTTTTAACTT [XGTACX_site431] | 9.32 ± 0.32
TGTAAAACCTCCTACACACACCAATTAACTATTCTA [CACACA_site7074] | 9.36 ± 0.15
TATATATATATTATTAGTACTTATTTTTTTTCATAT [XGTACX_site1279] | 8.79 ± 0.48
TTATATTATAGACACACACACAAAAAAAAAAAAAAA [CACACA_site3816] | 9.3 ± 0.47
TATAACTTTTATAGGTGTACCCAATATTATATATAG [XGTACX_site7673] | 8.56 ± 0.38
CCATCTTTTTTACGATGTACAAGTATAAGGTATACG [XGTACX_site2697] | 8.58 ± 0.41
TATATATAATAAGAAGGTACACGTAAGTAATAATTT [XGTACX_site934] | 9.01 ± 0.42
TTTATATGTTTTGTATTTTTAATAAATATTTTATTA [TGCATGCA_negctrl_site20] | 8.59 ± 0.47
TTGAATTAAAAACATACATGCATATATATATATATA [TGCATGCA_site319] | 9.72 ± 0.071

Sequence | gcPBM binding intensity (ln)
AATAAATTACTATGTACACACATAAGAGTATAAATA [CACACA_site6940] | 9 ± 0.49
TTATAAAATGGGCAAACACACACAAAAAAAAGATAT [CACACA_site8476] | 9.47 ± 0.38
AAAAAGTTACATGGTGGTACTCAAATAAAATATTCT [XGTACX_site5993] | 8.74 ± 0.45
ATTATCCATGCATTTACACACACACTAAAAAAAATT [CACACA_site7848] | 9.49 ± 0.14
ATGTATATATATTTGTGTACATATTTAGGAAATAAA [XGTACX_site2904] | 8.78 ± 0.47
AATTAAATTTATATGAATGTCAATTATATTGTTATA [XGTACX_negctrl_site261] | 8.47 ± 0.47
TTTTTTTTAGTATGAACACACATATATATTATAAAA [CACACA_site2935] | 8.41 ± 0.37
TATTATGTTATATATTGTACATGTTTATTGAAACAA [XGTACX_site5605] | 8.55 ± 0.39
TTTATATGTGAAAAAAGTACAAGGAAAAAATTAAAC [XGTACX_site7269] | 8.74 ± 0.57
TATTAACAAAATATAGCACACATAAATATATATTTA [CACACA_site8005] | 8.75 ± 0.41
TTTTTTTTTTTTTGATGTACATAAATTAAGAATTAT [XGTACX_site7789] | 8.41 ± 0.42
AATATATCTTTTTACGGCAACCATATTTTTCCCATT [CACACA_negctrl_site963] | 8.84 ± 0.47
TATATATTTGTAACGGGTACGTAGGTGTATATTCCA [XGTACX_site6028] | 8.82 ± 0.46
AGCCACGTGGTATATACACACATAATCAAATAAAAT [CACACA_site9364] | 9.43 ± 0.45
TTTTTTTTTTTTTTGACACACATAATAAAATACAAA [CACACA_site3080] | 8.4 ± 0.38
AATAAGCATATACAAACATGCATACATATAAATAAA [TGCATGCA_site338] | 8.94 ± 0.42
GAAACGATTTAATACACACACGTATTATAGATATAT [CACACA_site6666] | 9.25 ± 0.34
ATAAAACAACACACTTGTACTAATTTTTTTTTTTTT [XGTACX_site8377] | 8.79 ± 0.39
TAATTTATAAGGTATAACAACAATTGCATCTATCAC [XGTACX_negctrl_site314] | 8.68 ± 0.44
